# Out of some 390,000 compounds screened, about 17,000 (4.4%) were called active. This list was built around the results that the source calls inconclusive (neither active nor inactive); the mix of calls is not that of the screen. The call rests on the fitted dose curve; in most records, active means well fitted inhibition curve with a large enough effect; inconclusive means small, poorly fitted or top-dose-only effect; inactive means no such curve, though single readings can be large or run the other way. Where the call is inconclusive, the potency comes from a doubtful curve fit.
# Biological target: Lysine-specific demethylase 4A (Homo sapiens) (UniProt O75164)
# Assay: qHTS Assay for Inhibitors of JMJD2A-Tudor Domain; further: nearly all actives have a fitted effect of over 50% in size
# Details: AlphaScreen JMJD2A-Tudor / H3K4me3 peptide binding; activity change, negative = inhibition: at 114 µM (top of the series)
# On the % scale 0 is the no-effect control and ±100 the full control effect; potency means the concentration at half of the fitted maximal effect; tags describe the fitted curve by direction and shape.
# Sequence of UniProt O75164 (O75164 whole entry, looked up, the tested form may be a part): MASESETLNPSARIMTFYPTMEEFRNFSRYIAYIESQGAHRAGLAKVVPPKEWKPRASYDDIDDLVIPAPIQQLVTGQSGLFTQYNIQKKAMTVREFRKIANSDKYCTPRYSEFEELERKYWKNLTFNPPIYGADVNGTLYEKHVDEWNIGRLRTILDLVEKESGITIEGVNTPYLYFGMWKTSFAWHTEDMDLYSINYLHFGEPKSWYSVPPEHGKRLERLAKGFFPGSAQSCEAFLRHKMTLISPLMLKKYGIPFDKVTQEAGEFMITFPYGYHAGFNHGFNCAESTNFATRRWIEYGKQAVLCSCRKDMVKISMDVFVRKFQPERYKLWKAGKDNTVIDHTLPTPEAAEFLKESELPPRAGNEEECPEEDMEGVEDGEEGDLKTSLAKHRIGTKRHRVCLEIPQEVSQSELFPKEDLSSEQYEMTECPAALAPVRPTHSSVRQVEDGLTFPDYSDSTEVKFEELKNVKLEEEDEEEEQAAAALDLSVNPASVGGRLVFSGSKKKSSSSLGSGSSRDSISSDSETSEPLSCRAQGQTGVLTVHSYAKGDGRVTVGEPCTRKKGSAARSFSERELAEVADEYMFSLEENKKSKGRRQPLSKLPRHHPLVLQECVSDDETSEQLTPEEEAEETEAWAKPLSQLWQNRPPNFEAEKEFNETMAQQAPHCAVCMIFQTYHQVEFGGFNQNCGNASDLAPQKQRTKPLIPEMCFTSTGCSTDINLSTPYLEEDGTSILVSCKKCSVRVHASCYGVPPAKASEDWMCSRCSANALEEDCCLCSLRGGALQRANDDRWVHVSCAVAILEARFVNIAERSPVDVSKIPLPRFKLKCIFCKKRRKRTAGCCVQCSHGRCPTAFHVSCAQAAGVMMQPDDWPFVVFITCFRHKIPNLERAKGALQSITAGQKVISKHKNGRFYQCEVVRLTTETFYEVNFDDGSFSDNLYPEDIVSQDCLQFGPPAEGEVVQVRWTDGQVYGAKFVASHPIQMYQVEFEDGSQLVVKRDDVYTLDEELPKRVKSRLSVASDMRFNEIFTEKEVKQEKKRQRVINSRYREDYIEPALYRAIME
SMILES,Potency,"activity change, negative = inhibition"
COc1ccc(OC)c(NCc2cccn2-c2nnc(N3CCC(C)CC3)s2)c1,"inconclusive: 20 µM [inhibitor, full curve]",
C/C(=N\NC(=O)c1cccc(S(=O)(=O)N2CCCC2)c1)c1cccs1,active: 56.2 µM,
CCCCC1=CC2=C(c3ccco3)C(=O)C(C)(OC(=O)c3ccc(OC)cc3)C(=O)C2=CN1c1ccccc1 (centres undefined),"inconclusive: 44.7 µM [inhibitor, full curve]",
COc1ccc2c(c1)Oc1ncn(CCN3CCOCC3)c(=N)c1C2c1ccc(OC)c(OC)c1 (centres undefined),,inactive: -19.7%
O=C(O)C(Cc1ccccc1)n1c(=S)[nH]c2ccccc2c1=O (centres undefined),active: 14.1 µM,
O=C(CN1CCN(Cc2ccc3c(c2)OCO3)CC1)Nc1cc(S(=O)(=O)N2CCCC2)ccc1Cl,"inconclusive: 89.1 µM [inhibitor, partial curve]",
O=C(/C=C/c1ccc([N+](=O)[O-])cc1)Nc1cccc(C(=O)Nc2ccccc2C(=O)O)c1,"inconclusive: 35.5 µM [inhibitor, full curve]",
CC1(C)S/C(=N/N=C/c2ccco2)NC1=O,"inconclusive: 35.5 µM [inhibitor, single point]",
CCOc1ccc2c(c1)[C@@H]1C=CC[C@@H]1[C@H](c1ccccc1Cl)N2,active: 44.7 µM,
COc1ccc(N2CCN(C(=O)CCS(=O)(=O)c3ccc4c(c3)NC(=O)CO4)CC2)cc1,"inconclusive: 17.8 µM [inhibitor, full curve]",
Cc1nc([N+](=O)[O-])cn1CC(=O)Nc1ccc(F)c(Cl)c1,,inactive: -15.9%
COc1ccc(C(c2sc3nc(C)nn3c2O)N2CCC(C(N)=O)CC2)cc1OC (centres undefined),,inactive: -2.72%
O=S(=O)(c1ccc(Cl)c(NC(=S)N/N=C/c2ccc(O)cc2)c1)N1CCOCC1,"inconclusive: 35.5 µM [inhibitor, partial curve]",
Cn1c(C(=O)N2CCCC(C(=O)NCCCSC3CCCCC3)C2)cc2sccc21 (centres undefined),"inconclusive: 50.1 µM [inhibitor, partial curve, poor fit]",
Cc1ccc(NC(=O)c2c(C)oc3ccc(O)c(CN4CCCCC4)c23)cc1,,inactive: -33.3%
CN(C)CCCNCCCNC(=O)/C(=N\O)c1ccccn1,"inconclusive: 2.51 µM [inhibitor, full curve, poor fit]",
CCOC(=O)c1c(-c2ccc(F)cc2)csc1NC(=O)CN1C(=O)NC2(CCCCC2C)C1=O (centres undefined),"inconclusive: 50.1 µM [inhibitor, partial curve]",
CCN1CCN(c2ccc(N3CCN(C(=O)c4ccc(Br)o4)CC3)nn2)CC1,,inactive: -9.46%
COc1cccc(-c2nnc(-c3ccccc3NC(=O)c3ccc(C(C)(C)C)cc3)o2)c1,,inactive: -0.699%
COc1cc(Cn2c(=O)c3c(OC)c(C)cnc3n(C)c2=O)cc(OC)c1,,inactive: -9.02%
COc1ccccc1CNCC(=O)N1CC(=O)Nc2ccccc21,active: 20 µM,
Cc1cc(NC(=O)COn2nnc3ccc(S(C)(=O)=O)cc32)ccc1Br,"inconclusive: 63.1 µM [inhibitor, partial curve, poor fit]",
COC(=O)c1sccc1NC(=O)CC1C(=O)NCCN1C(=O)Nc1ccc(OCc2ccccc2)cc1 (centres undefined),"inconclusive: 56.2 µM [inhibitor, partial curve, poor fit]",

SMILES,Potency,"activity change, negative = inhibition"
CS(=O)(=O)N1CCC(C(=O)Nc2c(F)cccc2F)CC1,,inactive: -29.6%
CNc1nc(-c2ccccn2)nnc1-c1ccccc1,active: 5.62 µM,
CCN(CC)CCNC(=O)c1ccc2c(c1)NC(=O)C(CS(=O)(=O)Cc1ccc(F)cc1Cl)N2 (centres undefined),"inconclusive: 56.2 µM [inhibitor, partial curve]",
Cc1cccc(C(=O)Nc2ccc(C(=O)/C=C/c3cccs3)cc2)c1,"inconclusive: 10 µM [inhibitor, full curve, poor fit]",
O=C(N/N=C/C1=C(N2CCOCC2)C(=C\c2ccccc2)/CC1)Nc1ccccc1,,inactive: -3.72%
CCN(CC)CCN1CCn2c3c(c4cc(C)ccc42)CCCC31 (centres undefined),active: 56.2 µM,
COc1ccc(CC2C(=O)OC(C)(C)OC2=O)cc1,active: 35.5 µM,
COc1ccc(Cn2nnnc2C(c2cccnc2)N2CCN(c3ccc(O)cc3)CC2)cc1 (centres undefined),"inconclusive: 39.8 µM [inhibitor, full curve, poor fit]",
Oc1ccccc1C=NCCCCCCN=Cc1ccccc1O,"inconclusive: 39.8 µM [inhibitor, single point]",
COc1cccc(OCC(=O)O/N=C(\N)c2ccc(OC)c(OC)c2)c1,,inactive: 38.3%
O=C(CSc1nnc(-c2cccnc2)n1Cc1ccco1)c1ccc(Cl)c(Cl)c1,"inconclusive: 79.4 µM [inhibitor, partial curve]",
COc1cccc(CN2CCN(Cc3cc(OC)c(OC)cc3OC)CC2)c1,active: 1.58 µM,
CCCOCc1cc(CN2CCN(c3cccc(Cl)c3)CC2)c(O)c2ncccc12,active: 12.6 µM,
COc1ccc(Nc2cc(C(=O)NCCCN(C)c3ccccc3)c3ccccc3n2)c(OC)c1,active: 15.8 µM,
CCOCCCNC(=O)c1ccc2c(c1)ncn2-c1ccc(C)cc1C,"inconclusive: 35.5 µM [inhibitor, partial curve]",
O=C(Cn1cccc1)N1CCN(C(c2ccccc2)c2ccccc2)CC1,"inconclusive: 56.2 µM [inhibitor, partial curve]",
O=C(CSc1ccc(F)cc1)Nc1nnc(-c2ccco2)o1,"inconclusive: 63.1 µM [inhibitor, partial curve, poor fit]",
O=C(CCC1CCCN(C(=O)CC2=CCCCC2)C1)N1CCN(c2ccccn2)CC1 (centres undefined),active: 14.1 µM,
CCC1CCCCN1S(=O)(=O)c1ccc(NC(=O)c2nc(SC)ncc2Cl)cc1 (centres undefined),,inactive: -16.7%
C=CCNC(=O)N1CCC(n2nccc2NC(=O)CCCc2ccccc2)CC1,,inactive: -17.2%
COc1cc(OC)c(CN2CCc3c([nH]c4ccccc34)C2)cc1Br,"inconclusive: 56.2 µM [inhibitor, partial curve, poor fit]",
CS/C(=N\S(=O)(=O)c1cccs1)NC(=O)CSc1nc2ccccc2s1,"inconclusive: 39.8 µM [inhibitor, single point]",
c1ccc(C2(CN3CCNC[C@H]3Cc3cccc4ccccc34)CC2)cc1,"inconclusive: 56.2 µM [inhibitor, partial curve]",

SMILES,Potency,"activity change, negative = inhibition"
COc1cc(/C=C2/C(=O)NN(c3ccc(F)cc3)C2=O)cc([N+](=O)[O-])c1O,"inconclusive: 44.7 µM [inhibitor, partial curve]",
Cn1c(O)c(C(C#N)=C2N=c3ccccc3=N2)c2ccccc21,"inconclusive: 7.08 µM [inhibitor, full curve, poor fit]",
CCc1nnc(NS(=O)(=O)c2ccc(N=Cc3c(C)[nH]n(-c4cccc(Cl)c4)c3=O)cc2)s1,"inconclusive: 56.2 µM [inhibitor, partial curve]",
O=C(O)/C=C/C(=O)N1CCN(C(=O)/C=C/C(=O)O)CC1,"inconclusive: 89.1 µM [inhibitor, single point]",
COc1cccc(C2CC(c3cccs3)=NN2C(=O)CSc2nc3c(cnn3-c3ccc(F)cc3)c(=O)[nH]2)c1OC (centres undefined),"inconclusive: 39.8 µM [inhibitor, partial curve]",
CNc1snc(C)c1C(=O)OC(C)C(=O)NCc1ccccc1 (centres undefined),"inconclusive: 3.98 µM [inhibitor, single point]",
CCCOc1ccc(CNC(=O)C(C)n2nc(C)n3c(cc4occc43)c2=O)cc1 (centres undefined),,inactive: -10.5%
COc1ccc(Cl)cc1NC(=O)CSc1nnc(C)n2c1cc1sccc12,,inactive: -6.23%
O=C(Nc1ccccc1)C1=C(O)CC(c2ccoc2)CC1=Nc1ccccc1 (centres undefined),"inconclusive: 56.2 µM [inhibitor, partial curve]",
CC(C)CC1Nc2ncnc(N3CCN(c4ccccn4)CC3)c2N(Cc2ccc(Cl)cc2)C1=O (centres undefined),"inconclusive: 70.8 µM [inhibitor, partial curve]",
Oc1ccc(NC(=S)Nc2ccccc2)cc1,inactive,
COc1cc(C)c(S(=O)(=O)n2c([N+](=O)[O-])cnc2C)cc1C,"inconclusive: 11.2 µM [inhibitor, full curve, poor fit]",
COc1ccc(OCc2cc(=O)c3ccc4c(c3o2)C=CC(C)(C)O4)cc1OC,"inconclusive: 50.1 µM [inhibitor, partial curve]",
CCOc1ccc(OCCC(=O)OCC(=O)Nc2cccc(S(=O)(=O)N3CCCCC3)c2)cc1,"inconclusive: 22.4 µM [inhibitor, full curve]",
Brc1ccccc1OCCNCc1ccccc1,"inconclusive: 0.708 µM [inhibitor, full curve, poor fit]",
N#CCn1c(Cc2ccccc2)nc2ccccc2c1=O,,inactive: -0%
FC(F)(F)c1cccc(N/N=C/c2ccccc2)c1,"inconclusive: 35.5 µM [inhibitor, single point]",
CN(C)c1ccc(C=C2SC(=S)NC2=O)cc1,"inconclusive: 31.6 µM [inhibitor, full curve]",
COc1cccc(Nc2nnc(SCc3cc([N+](=O)[O-])cc4c3OCOC4)s2)c1,"inconclusive: 56.2 µM [inhibitor, single point]",
COc1ccc(CNC(=O)c2ccc(N3CCCC3)c(NC(=O)NCc3ccc(F)cc3)c2)cc1,"inconclusive: 35.5 µM [inhibitor, full curve, poor fit]",
Cc1ccc(N2C(=O)CSC23C(=O)N(CC(=O)NCc2ccccc2)c2ccccc23)cc1C (centres undefined),,inactive: -22.3%
Cc1cccc(NC(=S)NN2CCN(C)CC2)c1C,,inactive: -6.32%
CC1CCN(C(=S)c2ccc(-c3ccc(Cl)cc3Cl)o2)CC1,"inconclusive: 14.1 µM [inhibitor, full curve]",
